From PMC12040169 (PLOS Biology, 2025)
This is one part of the list.

Test system: T1, C. trachomatis L2/434/Bu expressing GFP (CTL2-GFP)
T1 construct: L2/434/Bu GFP intracellular growth in HeLa cells
Design: species or system HeLa; C. trachomatis total inclusion area by high-content imaging, normalised to DMSO
Conditions: total inclusion area; 28.5 h, 10 µM; inhibitor
How it was run: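 High-content imaging followed the bulk GFP/resorufin measurement: fixed, Hoechst-stained cells were scored for GFP inclusions and host nuclei per well. Total inclusion area and count served as growth proxies, nuclei number as the viability proxy. MIC calculation matched the bulk assay.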

SMILES	% of control remaining
CC(NC(=O)N(CCC#N)C1CCCCC1)c1ccccc1 (centres unmarked) [CBK156382]	101.083
NCC(=O)Nc1ccc(Cl)c(Cl)c1 [CBK046317]	91.5967
COCC(=O)Nc1ccc2c(c1)NC(=O)C(C)(C)CO2 [CBK287658]	94.1697
COc1ccc(-n2ccn(C(=O)CCC3CCCC3)c2=O)cc1 [CBK106595]	105.61
O=C(O)c1cccc(-c2cc(N3CCN(Cc4cccnc4)CC3)n3nccc3n2)c1 [CBK037080]	136.784
CC(NC(=O)C1C2C=CC(C2)C1C(=O)O)c1ccccc1 (centres unmarked) [CBK265384]	100.711
OCc1ncccc1OCCOC1CCCCO1 (centres unmarked) [CBK045702]	82.2985
CCN1CCN(C(=O)CN(CC)S(=O)(=O)c2ccc3ccccc3c2)CC1 [CBK267913]	89.1002
N#Cc1ccc(-c2cc(NCCc3ccncc3)ncn2)cc1 [CBK037787]	152.311
COc1cccc(NC(=O)N2CC[C@H]3CC(=O)N(c4ccccc4)CC[C@H]3C2)c1 [CBK288787]	73.7635
COC(=O)N/N=C(/C)c1ccc(C)cc1 [CBK016149]	68.9914
CN(C)CCNCCCSc1ccc(Cl)cc1 [CBK267794C]	82.4764
CCCNCC(=O)N1CCN(C(=O)c2ccc(C)cc2)CC1 [CBK025546]	57.7278
COc1ccc(Oc2coc3c(CN(C)C)c(O)ccc3c2=O)cc1 [CBK263653]	113.395
CC(C)[C@@H](N)C(=O)N1CC[C@@H]2NC(=O)[C@@H](Cc3ccccc3)NC(=O)C3(C/C=C/C[C@H]2C1)CCOCC3 [CBK292201]	85.5657
Cn1c(Cc2ccccc2)nnc1Sc1ccc(C(=O)O)cc1[N+](=O)[O-] [CBK265038]	104.134
COc1ccc(CCC(=O)Nc2ncn(Cc3cccc(C)c3)n2)cc1 [CBK288227]	109.744
O=C(NCCn1nc(-c2cccs2)ccc1=O)c1cccs1 [CBK283836]	98.1654
Cc1cnc(CNC(=O)N2CCc3ccccc3C2)cn1 [CBK155166]	133.163
CC(=O)N1CCCC(c2cc3cccnc3n2CCN2CCCC2)C1 (centres unmarked) [CBK284591]	82.5314
Cc1c(F)cccc1CNCc1ccc(CNC(=O)OC(C)(C)C)cc1 [CBK056708]	118.299
CC(CCc1ccccc1)NC(=O)CC1COc2ccccc2O1 (centres unmarked) [CBK266203]	99.8388
CC(=O)C(C)n1c(CN2CCCC(C)C2)nc2c1c(=O)n(C)c(=O)n2C (centres unmarked) [CBK306061]	37.9683
CC(C)CCNC(=O)CC(=O)Nc1ccc(C(=O)O)cc1 [CBK286721]	62.0411
CN1Cc2ccccc2CC1C(=O)N1CCc2ncc(Cl)cc2C1 (centres unmarked) [CBK282568]	110.606
CC(C)(C)C(=O)NCCn1c(=O)oc2ccccc21 [CBK282885]	119.852
CCOC(=O)c1cn(CCSCC)cc(Oc2ccccc2)c1=O [CBK307244]	55.759

SMILES	% of control remaining
CC(C)(C)NS(=O)(=O)c1ccc(NC(=O)c2cc(-c3ccccn3)nc3c(Cl)cccc23)cc1 [CBK267783]	96.8731
CC(Oc1ccccc1)C(=O)Nc1nn(Cc2ccc(S(=O)(=O)N3CCCC3)cc2)c2ccccc12 (centres unmarked) [CBK061595]	93.2472
COc1ccccc1Cc1cccc(C2CCCN2C(=O)CCc2ccc(F)cc2)n1 (centres unmarked) [CBK286238]	89.0759
CCCn1nc(C)c(-c2cncn2CCc2c(C)nn(C)c2C)c1C [CBK281475]	77.606
Cc1cccc(NC(=O)Cn2cc(C(=O)COc3ccccc3)c3ccccc32)c1 [CBK268654]	101.835
CC(=O)Nc1ccc(S(=O)(=O)Nc2nnc(C(C)(C)C)s2)cc1 [CBK045499]	57.247
Cc1ccc(C(=O)NC[C@H]2O[C@@H](CC(=O)N3CCOCC3)[C@H](O)[C@@H]2O)cc1 [CBK288925]	78.385
COc1cc([N+](=O)[O-])ccc1NC(=O)NCc1ccc(C(=O)O)cc1 [CBK267092]	117.553
O=C(O)c1ccc(N2C(=O)CC(N3CCN(C/C=C/c4ccccc4)CC3)C2=O)cc1 (centres unmarked) [CBK261402]	98.119
Cc1c(C(=O)O)sc2nc3c(Cl)cc(C(=O)c4ccccc4O)cn3c(=O)c12 [CBK295619]	68.7114
Cc1noc(C)c1S(=O)(=O)Nc1ccsc1C(=O)Nc1ccc(F)cc1 [CBK004604]	79.7189
CC(=O)c1cc(C)c(C)cc1N [CBK016322]	125.135
O=C(Nc1ccc(C(F)(F)F)cc1)C1CCCS1 (centres unmarked) [CBK006142]	51.683
OCCN1CC2(CCN(CCc3c[nH]c4ccccc34)CC2)c2ccccc21 [CBK144607T]	88.6725
O=C(NCc1cccs1)c1ccc(-c2ccoc2)nc1 [CBK156269]	89.338
Cc1cc(C)c2c(CC(=O)N(C)CCN(C)C)c(C)[nH]c2c1 [CBK282732]	116.755
Cn1c(SCC(=O)Nc2c(F)cc(F)cc2Br)nnc1-c1cccnc1 [CBK267583]	104.451
Cc1ccc(-c2c(N3CCCC3)n[nH]c2C2CC2)cc1 [CBK288192]	53.4516
Cc1cc(CN2CCN(S(=O)(=O)c3ccc(C(F)(F)F)cc3Cl)CC2)cc(C)c1O [CBK063074]	83.9805
CCC(NC(=O)CCc1cccnc1)c1cn2cccnc2n1 (centres unmarked) [CBK307247]	67.4317
CC(C)(CN1CCCC1)NC(=O)c1cc(Cl)c(Cl)cc1C(=O)O [CBK287141]	111.862
Cc1cc(=O)c(C#N)c(C)[nH]1 [CBK023326]	59.2248
O=C(O)c1cccc(NS(=O)(=O)c2ccc(Br)cc2F)c1 [CBK155691]	80.6909
Fc1cc(Br)ccc1-c1cnn(-c2ccccc2)n1 [CBK112925]	81.0659
O=C(COc1ccc([N+](=O)[O-])cc1)Nc1cccc2nsnc12 [CBK263808]	52.2679
COCCn1nc(C(=O)N(C)Cc2nc3ccccc3s2)ccc1=O [CBK305338]	107.932
Cc1nc(C)n(CC2CCCN(Cc3cn4c(C)cccc4n3)C2)n1 (centres unmarked) [CBK304007]	83.7889

SMILES	% of control remaining
CC(=O)N1CCN(C(=O)C[C@@H]2C[C@@H](C(C)C)[C@H](CC#N)C=C2C)CC1 [CBK289214]	64.8844
COc1ccc2cnc(C3CCCN(C(=O)C4CC4)C3)cc2c1C (centres unmarked) [CBK284716]	104.353
Cc1cccc(-c2nc(C(N)=O)c3[nH]c(=O)n(-c4ccc(F)cc4)c3n2)c1 [CBK287632]	83.0279
CC(Sc1nc2ccccc2c(=O)n1C)C(=O)N1CCOCC1 (centres unmarked) [CBK305031]	39.6746
O=C(C1CC2C=CC1C21CC1)N1CCCC(c2nc3ccccc3[nH]2)C1 (centres unmarked) [CBK281513]	97.9658
O=S(=O)(NCc1cccnc1)c1ccc(Cl)c2ccccc12 [CBK264008]	87.81
O=S(=O)(c1cc(Cl)ccc1Cl)N1CCCN(Cc2ccccc2)CC1 [CBK044491]	84.695
COc1ccc(-c2nnc(SCC(=O)NN)n2-c2ccccc2)cc1OC [CBK262264]	88.4427
COc1cc(NC(=O)Cn2nc([N+](=O)[O-])c(Cl)c2C)c(OC)cc1Cl [CBK033535]	82.8481
COc1ccc2c(c1)C(=O)NC1(CC2)CCN(Cc2ccccc2)C1 (centres unmarked) [CBK283343]	118.728
O=C(Cn1ccc(=O)[nH]c1=O)NCc1cccnc1-n1cccn1 [CBK305705]	46.5249
Cc1c(Br)c(C(F)(F)F)nn1CC(=O)N1CCCC1 [CBK071473]	111.001
COc1ccc([C@@]23CC[C@@H](NC(=O)c4ccc(C(F)(F)F)cc4F)C[C@@H]2N(C)CC3)cc1OC [CBK073976T]	42.4542
O=C(c1ccc2c(c1)OCO2)N1CCN(C/C=C/c2ccccc2)CC1 [CBK262639]	111.615
CCc1noc(C)c1C(=O)NC(C)c1cc2ccccc2o1 (centres unmarked) [CBK247065]	94.7939
COc1ccc(CNc2cc(-c3cccc(Cl)c3)nc3ccnn23)cc1 [CBK037037]	99.7883
Cc1c(CN(C)CC2CCN(C)C2)cnn1Cc1ccccc1 (centres unmarked) [CBK282616]	124.186
COc1cc(C2SCC(=O)Nc3c2c(-c2ccccc2)nn3-c2ccccc2)cc(OC)c1OC (centres unmarked) [CBK265025]	114.004
CCCC/C=C/c1nccnc1NCc1ccco1 [CBK037116]	98.0432
O=c1[nH]c(CNc2ccccc2)nc2ccccc12 [CBK288038]	97.9179
CC(C)Nc1cccnc1N1CCN(C(=O)c2cc3cc(NC(=O)N4CCOCC4)ccc3[nH]2)CC1 [CBK007872]	153.425
NC(=S)N/N=C/c1c[nH]nc1-c1ccccc1 [CBK009705]	71.7465
CN(Cc1ccc(Br)cc1Cl)C(=O)c1cn[nH]c1C1CCNC1 (centres unmarked) [CBK304785]	97.111
O=C(O)/C=C/c1cn([C@@H]2O[C@H](CO)[C@H](O)C2O)c(=O)[nH]c1=O (some centres unmarked) [CBK201270]	116.749
COCCn1c(CO)nnc1[C@H]1C[C@@H](NC(=O)c2cc(C)ccc2Cl)C1 [CBK306564]	86.5373
CC(CCc1ccccc1)NC(=O)c1ccccc1C(=O)O (centres unmarked) [CBK286940]	86.2131
